In PubChem BioAssay AID743279 (National Center for Advancing Translational Sciences (NCATS), 2014):
Out of some 360,000 compounds screened, about 17,000 (4.7%) were called active. This list was built around the results that the source calls inconclusive (neither active nor inactive); the mix of calls is not that of the screen. Cut-off read from the data, not from the text of the source: active = activity change below about -50%; inconclusive = mostly about -30% to -49%; inactive = weaker than that.
% is set by controls: 0 for no effect and ±100 for the full control effect.

Assay: qHTS for Inhibitors of Inflammasome Signaling: IL-1-beta AlphaLISA Primary Screen
Details: THP-1 LPS/ATP IL-1B secretion, 16 h; at 57.5 µM, stronger effect = lower value
Method in brief: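 Secreted IL-1B measured by AlphaLISA bead assay after 16 h compound exposure of THP-1 cells; compounds (final up to 57.5 uM) added 1 h before LPS (250 ng/mL) and ATP (1.25 mM) stimulation; lower signal means less secretion.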
For `Cc1ccc2c(c1)N(CCC(=O)NCc1ccco1)C(=O)CO2`, the activity change was inconclusive: -32.4%.
With `CC(=O)Nc1cccc(-c2csc(Nc3cccc(C)n3)n2)c1` the activity change was active: -56.6%.
In the case of `C[C@@H]1CN([C@@H](C)CO)C(=O)c2cc(NC(=O)C3CC3)ccc2O[C@@H]1CN(C)Cc1ccc(Cl)c(Cl)c1`, the activity change is reported as inconclusive: -37.9%.
In the case of `Fc1cccc(Cl)c1COc1ccc(-c2nnco2)cc1`, the activity change is reported as inconclusive: -30.2%.
In the case of `COc1ccc(C)cc1C1=CC(=O)C[C@H](c2ccc(F)cc2)C1`, the activity change is reported as inconclusive: -30%.
In the case of `CC(C)(C)c1ccc(O)c(O)c1`, the activity change is reported as active: -81%.
In the case of `CC(C)c1nc2sc3c(NCc4ccco4)ncnc3c2c2c1COC(C)(C)C2`, the activity change is reported as inconclusive: -47.1%.
For `CC(=O)NCCNc1nc2cc(-c3ccsc3)sc2c(=O)n1C`, the activity change was inactive: 32.5%.
For `COc1ccc(NC(=O)Nc2cccs2)cc1Cl`, the activity change was active: -52.4%.
With `COc1cc(OC)cc(C(=O)N[C@H](C(=O)OCC(=O)c2ccc(C)c([N+](=O)[O-])c2)C(C)C)c1` the activity change was inactive: 14.7%.
With `COc1ccc(C(c2nnnn2C(C)(C)C)N2CCN(C(=O)c3ccco3)CC2)cc1` (stereo not drawn) the activity change was inactive: -17.4%.
For `COc1ccc(OC)c(NC(=S)N(CCc2c(C)[nH]c3ccc(C)cc23)Cc2cccs2)c1`, the activity change was inactive: -28.9%.
For `O=[N+]([O-])c1ccc(N2CCCC2)c([N+](=O)[O-])c1`, the activity change was inconclusive: -31.8%.
With `CCOC(=O)CNS(=O)(=O)c1ccc(S(=O)(=O)NC2CC2)cc1` the activity change was inconclusive: -41.4%.
In the case of `CCOc1cccc2sc(Nc3nc4ccc(NC(C)=O)cc4s3)nc12`, the activity change is reported as inconclusive: -38.4%.
For `Cc1ccccc1NC(=S)NNC(=O)c1csc2c1CCC(C)C2` (stereo not drawn), the activity change was inconclusive: -34.8%.
In the case of `COc1cccc(Nc2nc(-c3sc(C)nc3C)cs2)c1`, the activity change is reported as inactive: 2.98%.
With `O=[N+]([O-])/C(C(Cl)=C(Cl)Cl)=C(/NC1CC1)Sc1ccccc1` the activity change was inconclusive: -32%.
For `Cc1nc(-c2ccccc2)sc1-c1nc(-c2cccnc2)ncc1S(=O)(=O)c1ccccc1`, the activity change was inconclusive: -40.5%.
For `CCCc1nn(C)c(C(=O)Nc2cccc(CC)c2)c1Cl`, the activity change was inconclusive: -31.7%.
For `CN(Cc1ccccc1)C(=O)[C@@H]1CCCN1`, the activity change was inactive: 13.9%.
In the case of `N=c1sccn1CC(=O)Nc1ccc2c(c1)CCC2`, the activity change is reported as inconclusive: -45.5%.
For `COc1ccc(Cl)cc1C(=O)CSc1nnnn1C1CCCC1`, the activity change was inconclusive: -39.4%.
For `CCC(=O)Nc1cc(NC(=O)CSc2ncc(-c3ccc(F)cc3)n2Cc2ccco2)ccc1C`, the activity change was inconclusive: -41.8%.
In the case of `O=C(Nc1cccc([N+](=O)[O-])c1)c1ccc2ccccc2c1O`, the activity change is reported as active: -63.3%.
In the case of `COc1ccc(N=C2NC(=O)/C(=C/c3ccc(O)c(OC)c3)S2)cc1`, the activity change is reported as active: -66.5%.
With `COc1ccccc1CNCc1ccc(OC)c2ccccc12` the activity change was active: -81.9%.
For `COc1ccc(C2CC(c3ccc4ccccc4c3)=NN2C(=O)CNC2CCCCC2)cc1` (stereo not drawn), the activity change was active: -50.9%.
With `Cc1ccc2c(c1)nnn2C1CCN(C(=O)Nc2ccccc2C)CC1` the activity change was active: -57.4%.
For `O=C(Nc1ccccc1)Nc1ccc(Br)c(Cl)c1`, the activity change was inconclusive: -47%.
In the case of `O=C(CSCc1ccccc1)N1CCN(Cc2ccc3c(c2)OCO3)CC1`, the activity change is reported as inconclusive: -40.8%.
In the case of `Cc1cc2cc3n(c2nn1)N=C(Cl)CC3`, the activity change is reported as active: -81.1%.
For `O=C(N/N=C/c1ccc([N+](=O)[O-])o1)c1ccc(NS(=O)(=O)c2cccs2)cc1`, the activity change was active: -54.3%.
For `CCn1cc(C(=O)N[C@@H](CCSC)C(=O)NCCN2CCOCC2)c(=O)c2cc3c(cc21)OCO3`, the activity change was inactive: 43.6%.
With `C=CCNc1nc(NCc2ccc(NC(C)=O)cc2)c2sc(-c3ccccc3)cc2n1` the activity change was inconclusive: -35%.
For `COC(=O)[C@@H](NC(=O)c1ccc2c(c1)S(=O)(=O)c1ccccc1C2=O)C(C)C`, the activity change was inconclusive: -34.2%.
With `Cc1ccc2[nH]cc(CCNC(=O)CN3C(=O)c4ccccc4C3=O)c2c1` the activity change was inactive: 23.2%.
In the case of `Cc1cccc([C@@H]2[C@@H]3C(=O)N(Cc4ccccc4)C(=O)[C@@H]3[C@]3(C)C(=O)N(c4ccc(C(F)(F)F)cc4)C(=O)N23)c1`, the activity change is reported as inconclusive: -37.9%.
For `Cc1cc(C)cc(NC(=O)/C=C/c2ccc([N+](=O)[O-])s2)c1`, the activity change was active: -102%.
For `CCOC(=O)c1c(CNCCN(CC)CC)n(C)c2cc(Br)c(OC)cc12`, the activity change was inconclusive: -32.3%.
For `COCCN(CCOC)c1nc(-c2ccccc2)nc2ccccc12`, the activity change was inconclusive: -39.7%.
For `O=C(c1c[nH]c(C(=O)N2CCN(Cc3ccccc3)CC2)c1)C1CCCCC1`, the activity change was inconclusive: -31.5%.
In the case of `CC(=O)Oc1ccc2c(c1)O/C(=C\c1ccncc1)C2=O`, the activity change is reported as inconclusive: -43.7%.
For `O=C(Cn1cc2c(n1)CCCC2)N1CCOCC1`, the activity change was inactive: 42.6%.
For `Cc1ccc2occ(/C=N/NC(N)=S)c(=O)c2c1`, the activity change was inactive: 17.7%.
With `O=C(Nc1cc(Cl)ccc1-n1cncn1)c1ccc(Br)o1` the activity change was inactive: 10.6%.
With `COc1ccc(S(=O)(=O)N2CCCC(C(=O)NCCCn3ccnc3)C2)cc1OC` (stereo not drawn) the activity change was inconclusive: -45.1%.
In the case of `CCc1ccc(/C=N/n2c(C3CCCCC3)n[nH]c2=S)cc1`, the activity change is reported as inconclusive: -44.3%.
With `N/C(CC(=O)Nc1ccc(F)c(Cl)c1)=N\OC(=O)c1cccs1` the activity change was inconclusive: -31.6%.
For `CC(NC(=O)COC(=O)c1ccc[nH]c1=O)c1ccccc1` (stereo not drawn), the activity change was inactive: 8.69%.
In the case of `c1csc(-c2nc(N3CCOCC3)c3ccccc3n2)c1`, the activity change is reported as inactive: -16.8%.
In the case of `COC(=O)N/N=C/c1cn(CCOc2ccccc2)c2ccccc12`, the activity change is reported as inconclusive: -43.1%.
For `COc1cccc(S(=O)(=O)Nc2ccc3c(c2)C(=O)N(C)C[C@H](OC)[C@H](C)CN(Cc2ccccc2F)[C@@H](C)CO3)c1`, the activity change was inconclusive: -46%.
For `O=C(/C=C/c1ccc(-c2ccccc2)o1)c1ccccc1`, the activity change was active: -99.4%.
With `CC1(c2cccc(Br)c2)NC(=O)N(CC(=O)Nc2cccnc2Cl)C1=O` (stereo not drawn) the activity change was inactive: 20%.
With `COc1ccc(C(=O)NCc2csc(-c3cccs3)n2)cc1` the activity change was inactive: 7.68%.
For `Cc1cc(C(=O)COc2ccc(-c3nnco3)cc2)c(C)n1Cc1ccccc1`, the activity change was inconclusive: -34.2%.
With `CCc1ccccc1NC(=O)CSc1nc2n[nH]c(C)c2c(=N)n1-c1ccc(OC)cc1` the activity change was inconclusive: -41.5%.
With `S=C1SCN(CCc2ccccc2)CN1CCc1ccccc1` the activity change was inactive: -0.633%.
In the case of `O=C(c1cnn2c(C(F)(F)F)cc(-c3ccc4c(c3)OCO4)nc12)N1CCCCC1`, the activity change is reported as inconclusive: -38.4%.
For `Cc1nc2c(cnn2-c2ccccc2Cl)c(=O)n1-c1ccc(N2CCC(C)CC2)cc1`, the activity change was inconclusive: -43.5%.
For `O=S(=O)(Nc1ccc(O)c(Sc2nc3ccccc3s2)c1)c1ccc(Cl)cc1`, the activity change was inconclusive: -31.5%.
In the case of `COc1cccc(NC(=O)CN(C)C(=O)c2cccnc2Nc2cccc(C(F)(F)F)c2)c1`, the activity change is reported as active: -78.2%.
In the case of `Cc1ccc(OCC(=O)NC2CCCc3ccccc32)c(C)c1` (stereo not drawn), the activity change is reported as inconclusive: -44.4%.
For `Cc1ccccc1-c1csc(C(O)c2ccccc2)n1` (stereo not drawn), the activity change was inactive: -17.5%.
For `CC(C)C(=O)OCC(=O)Nc1ccc(N=Nc2ccccc2)cc1`, the activity change was inconclusive: -35.2%.
With `COc1ccc(C(C)(O)c2nc(-c3ccc4ccccc4c3)cs2)cc1` (stereo not drawn) the activity change was inactive: 5.99%.
In the case of `COc1ccc(NC(=O)CSc2nnc(Cc3ccc(C)cc3)c(=O)n2N)cc1OC`, the activity change is reported as inactive: -12.2%.
With `COc1ccc2sc(N(CCCN(C)C)C(=O)c3ccc(S(=O)(=O)N4CCCc5ccccc54)cc3)nc2c1` the activity change was active: -83.5%.
With `COc1ccc(-n2nc([N+](=O)[O-])c(=NCCc3ccc(OC)c(OC)c3)n2O)cc1` the activity change was inconclusive: -31.9%.
With `Cc1nn(-c2ccccc2)c2c1C(c1ccncc1)C(C#N)=C(N)O2` (stereo not drawn) the activity change was inactive: 19.9%.
With `COc1ccc(CNC(=O)c2cc3c(C)nc4ccccc4c3o2)c(OC)c1` the activity change was inactive: 45.1%.
In the case of `O=C(NC1=NCCS1)c1ccc(Cl)c(Cl)c1`, the activity change is reported as inactive: 19.9%.
In the case of `c1ccc(Cn2ncc3c(N4CCN(c5ccccc5)CC4)ncnc32)cc1`, the activity change is reported as inconclusive: -37.8%.
In the case of `O=C(Nc1nccs1)C1CC(=O)N(c2ccc(Cl)cc2)C1` (stereo not drawn), the activity change is reported as inactive: 20.1%.
With `CC1(C)CC(=O)C=C(c2ccc(COC(=O)c3cc(F)cc(F)c3)cc2)C1=O` the activity change was inactive: 16.9%.
With `O=[N+]([O-])c1ccccc1CN1CCN(Cc2ccccn2)CC1` the activity change was inactive: -9.24%.
For `COc1ccc(CNc2nc3ccccc3n2C)c(OC)c1`, the activity change was inconclusive: -37.5%.
In the case of `O=C(/C=C/Nc1ccccc1)c1ccc(Oc2ncccn2)cc1`, the activity change is reported as inconclusive: -38.5%.
For `Cc1cccc(N2CCN(C(=O)c3c(C)nn(Cc4ccccc4Cl)c3C)CC2)c1C`, the activity change was inconclusive: -33.4%.
In the case of `CC(Oc1ccc(Cl)cc1Cl)c1ccnc2nc(N3CCOCC3)nn12` (stereo not drawn), the activity change is reported as active: -51.6%.
With `COc1cccc(C(=O)NC2CC3CCC(C2)N3Cc2ccccc2)c1` (stereo not drawn) the activity change was inactive: -6.26%.
For `C=CCc1cccc2cc(C(=O)N3CCOCC3)c(=O)oc12`, the activity change was inconclusive: -34.5%.
With `Cc1ccc(NC(=O)CSc2nc3ccccc3c3nc(CCc4c(C)n[nH]c4C)nn23)cc1F` the activity change was inactive: -5.77%.
With `N=C1C(c2nc(-c3ccc(F)cc3)cs2)=C(O)CN1CCCN1CCOCC1` the activity change was inconclusive: -42.1%.
For `Cc1cccc(-n2ncc3c(Nc4ccc(F)cc4)ncnc32)c1`, the activity change was inconclusive: -31.4%.
In the case of `Cc1ccc(-c2csc(NC(=O)c3ccno3)n2)cc1`, the activity change is reported as inconclusive: -30.5%.
For `CCOC(=O)N1CCc2c(sc(N)c2C#N)C1`, the activity change was inconclusive: -30.7%.
